# Source: the supplement of paper PMC8728848
# This is one part of the list.
# B1: MSMEG3662-2a (Mycobacterium smegmatis), A0QYH7_MYCS2 (protein)
# chain: MGDTLTAGQKLERGGSLQSGNGAYTLTLQDDGNLVLYARDKAVWSTGTNGQDVVRAEVQTDGNFVLYTAEKPVWHTDTKGKKEVKLVLQDDRNLVLYAKDGPAWSSKTDTTEPPPPAPEPEKEAEVAPAAAEEAAPAPVAEPAPAEPAPAAPPPAPPAPRTYTVVSGDTLWAIAERFYGDGSKYQQIADASGIANPDLIHPGQVLTIP
# Tests used:
# Assay in all cases: glycan array binding signal (z-score within array); higher = stronger binding
# Details in all cases: glycan notation: IUPAC condensed, linker removed
# GlcNAc(b1-3)GalNAc = molecular target: GlcNAc(b1-3)GalNAc
# Outline: (§1)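 Glycan array data were curated from 3228 arrays in the Consortium for Functional Glycomics database and kept only where the protein sequence was available. Glycan names were converted to IUPAC-condensed notation, and columns mapping to the same glycan were averaged. The binding signal is a within-array Z-score, averaged across arrays of the same protein sequence at different concentrations or buffers and across linkers. Negative Z-scores can be read as non-binding.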
# GlcNAc(b1-3)Man = molecular target: GlcNAc(b1-3)Man
# Outline: as §1
# [1] = molecular target: GlcNAc(b1-3)[GlcNAc(b1-4)][GlcNAc(b1-6)]GlcNAc
# Outline: as §1
# [2] = molecular target: GlcNAc(b1-3)[GlcNAc(b1-6)]Gal(b1-4)GlcNAc
# Outline: as §1
# [3] = molecular target: GlcNAc(b1-3)[GlcNAc(b1-6)]GalNAc
# Outline: as §1
# [4] = molecular target: GlcNAc(b1-4)Gal(b1-4)GlcNAc
# Outline: as §1
# GlcNAc(b1-4)GlcNAc = molecular target: GlcNAc(b1-4)GlcNAc
# Outline: as §1
# [5] = molecular target: GlcNAc(b1-4)GlcNAc(b1-4)GlcNAc
# Outline: as §1
# [6] = molecular target: GlcNAc(b1-4)GlcNAc(b1-4)GlcNAc(b1-4)GlcNAc(b1-4)GlcNAc
# Outline: as §1
# [7] = molecular target: GlcNAc(b1-4)GlcNAc(b1-4)GlcNAc(b1-4)GlcNAc(b1-4)GlcNAc(b1-4)GlcNAc
# Outline: as §1
# [8] = molecular target: GlcNAc(b1-4)[GlcNAc(b1-6)]GalNAc
# Outline: as §1
# [9] = molecular target: GlcNAc(b1-6)Gal(b1-4)GlcNAc
# Outline: as §1
# GlcNAc(b1-6)GalNAc = molecular target: GlcNAc(b1-6)GalNAc
# Outline: as §1
# [10] = molecular target: GlcNAc6S(b1-3)Gal(b1-4)GlcNAc
# Outline: as §1
# Kdn(a2-3)Gal(b1-3)GalNAc = molecular target: Kdn(a2-3)Gal(b1-3)GalNAc
# Outline: as §1
# Kdn(a2-3)Gal(b1-3)GlcNAc = molecular target: Kdn(a2-3)Gal(b1-3)GlcNAc
# Outline: as §1
# Kdn(a2-3)Gal(b1-4)Glc = molecular target: Kdn(a2-3)Gal(b1-4)Glc
# Outline: as §1
# Kdn(a2-3)Gal(b1-4)GlcNAc = molecular target: Kdn(a2-3)Gal(b1-4)GlcNAc
# Outline: as §1
# [11] = molecular target: Kdn(a2-3)Gal(b1-4)[Fuc(a1-3)]GlcNAc
# Outline: as §1
# Kdn(a2-6)Gal(b1-4)GlcNAc = molecular target: Kdn(a2-6)Gal(b1-4)GlcNAc
# Outline: as §1
# [12] = molecular target: Man(a1-2)Man(a1-2)Man(a1-3)Man
# Outline: as §1
# [13] = molecular target: Man(a1-2)Man(a1-2)Man(a1-6)[Man(a1-3)]Man
# Outline: as §1
# Man(a1-2)Man(a1-3)Man = molecular target: Man(a1-2)Man(a1-3)Man
# Outline: as §1
binder,measurement,setting,value
B1,glycan array binding signal (z-score),GlcNAc(b1-3)GalNAc,-0.097
same,glycan array binding signal (z-score),GlcNAc(b1-3)Man,-0.106
same,glycan array binding signal (z-score),[1],-0.054
same,glycan array binding signal (z-score),[2],0.009
same,glycan array binding signal (z-score),[3],0.009
same,glycan array binding signal (z-score),[4],-0.146
same,glycan array binding signal (z-score),GlcNAc(b1-4)GlcNAc,0.084
same,glycan array binding signal (z-score),[5],3.59
same,glycan array binding signal (z-score),[6],8.12
same,glycan array binding signal (z-score),[7],13.9
same,glycan array binding signal (z-score),[8],-0.07
same,glycan array binding signal (z-score),[9],-0.053
same,glycan array binding signal (z-score),GlcNAc(b1-6)GalNAc,-0.169
same,glycan array binding signal (z-score),[10],-0.073
same,glycan array binding signal (z-score),Kdn(a2-3)Gal(b1-3)GalNAc,-0.107
same,glycan array binding signal (z-score),Kdn(a2-3)Gal(b1-3)GlcNAc,-0.09
same,glycan array binding signal (z-score),Kdn(a2-3)Gal(b1-4)Glc,-0.211
same,glycan array binding signal (z-score),Kdn(a2-3)Gal(b1-4)GlcNAc,0.094
same,glycan array binding signal (z-score),[11],-0.19
same,glycan array binding signal (z-score),Kdn(a2-6)Gal(b1-4)GlcNAc,-0.226
same,glycan array binding signal (z-score),[12],0.026
same,glycan array binding signal (z-score),[13],-0.193
same,glycan array binding signal (z-score),Man(a1-2)Man(a1-3)Man,-0.062
